Measurements taken from PubChem BioAssay AID624417 (National Center for Advancing Translational Sciences (NCATS), 2012).
“And” between values parts separate entries of the source, which are not always exact repeats. Equal entries are not always repeated. Among all 410,000 compounds or so, about 6,400 (1.6%) were called active. The inconclusive results got no clear call from the source; some entries with a clear call stand among them for comparison. The call rests on the fitted dose curve; in most records, active means well fitted inhibition curve with a large enough effect; inconclusive means small, poorly fitted or top-dose-only effect; inactive means no such curve, though single readings can be large or run the other way. A potency beside an inconclusive call is a rough fit, not a confirmed value.

molecular target: Glucagon-like peptide 1 receptor (Homo sapiens) (UniProt P43220); assay: qHTS of GLP-1 Receptor Inverse Agonists (Inhibition Mode); settings: HEK293 GLP-1R CRE-luciferase, luminescence, 24 h, GLP-1R form is constitutively active; series mostly up to 38.3 µM; further: nearly all actives have a fitted effect of over 55% in size
Sequence of UniProt P43220 (P43220 whole entry, looked up): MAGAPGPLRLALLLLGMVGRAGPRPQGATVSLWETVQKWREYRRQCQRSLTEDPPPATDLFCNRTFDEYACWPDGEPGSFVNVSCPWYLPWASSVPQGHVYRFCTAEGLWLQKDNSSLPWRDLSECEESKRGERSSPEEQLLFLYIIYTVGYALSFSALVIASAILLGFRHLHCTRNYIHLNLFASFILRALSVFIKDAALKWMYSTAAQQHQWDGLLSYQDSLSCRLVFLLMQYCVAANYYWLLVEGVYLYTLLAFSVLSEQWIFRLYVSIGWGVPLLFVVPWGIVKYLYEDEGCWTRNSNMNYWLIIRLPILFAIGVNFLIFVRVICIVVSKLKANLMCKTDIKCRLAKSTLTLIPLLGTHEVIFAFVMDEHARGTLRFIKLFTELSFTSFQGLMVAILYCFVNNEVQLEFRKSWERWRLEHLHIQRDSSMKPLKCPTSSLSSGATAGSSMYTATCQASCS
Outline: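 Stable HEK293 clone (constitutively active GLP-1R + cAMP-response luciferase); 200 cells/uL plated, 12 h pre-culture, compound 24 hr, 37 deg C/5% CO2; detection reagent 12 min RT; luminescence.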
Potency means the concentration at half of the fitted maximal effect; tags describe the fitted curve by direction and shape.

Potency, inconclusive:
Fc1ccccc1CNc1nc(NCC2CC2)nc2ccsc12 25.1 µM [inhibitor, single point]
Cc1nc2c(-c3ccc(Cl)cc3)cnn2c(N)c1-c1ccc(F)cc1 1 µM [inhibitor, full curve, poor fit]
Cc1ccsc1/C=C/c1ccc2cccc(O)c2n1 12.6 µM [inhibitor, partial curve, poor fit]
O=S(=O)(NCC1(N2CCOCC2)CCCCC1)c1ccc(F)c(F)c1F 11.2 µM [inhibitor, partial curve]
CCCCCCCCN1C(=O)[C@H](CC(=O)N2CCN(C(=O)c3ccco3)CC2)C[C@@]2(C(=O)OCC)CCCC=C12 12.6 µM [inhibitor, partial curve, poor fit]
CCCN(CC(=O)Nc1ccccc1C)C(=O)c1ccc(C)c(S(=O)(=O)N2CCCCC2)c1 10 µM [inhibitor, partial curve]
O=C(NNC(=O)c1ccc(Cl)cc1Cl)c1csc(-c2cccnc2)n1 28.2 µM [inhibitor, single point]
Cc1cc(C)n(CC(C)NCc2cn[nH]c2-c2ccc(C)c(C)c2)n1 (stereo not drawn) 8.91 µM [inhibitor, partial curve]
CCS(=O)(=O)Nc1cccc(C2=NN(S(=O)(=O)c3ccc(C)cc3)C(c3cccs3)C2)c1 (stereo not drawn) 28.2 µM [inhibitor, single point]
Cc1cccc(NC(=O)C(C)Oc2ccccc2C)n1 (stereo not drawn) 20 µM [inhibitor, single point]
CCCNC(=O)C1(C)CCN(Cc2ccc(C)c3ccccc23)C1 (stereo not drawn) 10 µM [inhibitor, single point]
COc1cccc(CN2CCN(c3ccc(F)cc3)C2=O)c1 12.6 µM [inhibitor, single point]
O=C(NCCc1ccccc1)c1ccccc1F 11.2 µM [inhibitor, partial curve, poor fit]
CN(CC(=O)Nc1ccc(Cl)c(C(F)(F)F)c1)C(=O)c1cc(=O)[nH]c2ccccc12 12.6 µM [inhibitor, partial curve, poor fit]
CC(C)N(CCNC(=O)COc1ccc2oc3c(c2c1)CCCC3)C(C)C 10 µM [inhibitor, partial curve, poor fit]
Cc1cc(Br)ccc1NC(=O)CN(C)C(=O)CCSc1ccc(F)cc1 11.2 µM [inhibitor, partial curve, poor fit]
Cn1c(/C=C/c2cccc([N+](=O)[O-])c2)c([N+](=O)[O-])c(=O)n(C)c1=O 3.98 µM [inhibitor, partial curve, poor fit]
Cc1ccc(C(C(=O)NCC2CCCO2)N(C(=O)c2snc(C(N)=O)c2N)c2ccc(C(C)C)cc2)o1 (stereo not drawn) 8.91 µM [inhibitor, partial curve, poor fit]
Cc1cc2c(NCCc3ccccc3)ncnc2s1 10 µM [inhibitor, partial curve, poor fit]
CCOC(=O)c1c(NC2OC(=O)c3c2ccc(OC)c3OC)sc(C(=O)OC(C)(C)C)c1C (stereo not drawn) 28.2 µM [inhibitor, single point]
COc1ccc(C(O)(C(C)C)C(CN2CCOCC2)c2ccc(Cl)cc2)cc1 (stereo not drawn) 10 µM [inhibitor, partial curve, poor fit]
CCc1ccc(Nc2n[n+](-c3ccccc3)c(-c3ccc(SC)cc3)s2)cc1 11.2 µM [inhibitor, single point]
CC(C)C(=O)Nc1cccc(NC(=S)NC(=O)C(c2ccccc2)c2ccccc2)c1 28.2 µM [inhibitor, single point]
COc1ccc(CCN(C(=O)C(F)(F)F)C(C(=O)NC2CCCCC2)c2ccc(C)s2)cc1OC (stereo not drawn) 10 µM [inhibitor, single point]
Cc1ccc2ccccc2c1C(O)c1ncc(-c2cccc(C(F)(F)F)c2)[nH]1 (stereo not drawn) 11.2 µM [inhibitor, single point]
O=C(Nc1ccc2nc(SCC(=O)N3CCCC3)sc2c1)c1cccc(Cl)c1 28.2 µM [inhibitor, single point]
Cc1ccc(C2NC(c3ccc(C)cc3)C([N+](=O)[O-])C(C)(C)C2[N+](=O)[O-])cc1 (stereo not drawn) 11.2 µM [inhibitor, partial curve, poor fit]
COc1ccc(Cn2c(=O)[nH]c3cc(C(=O)N4CCN(c5ccccc5OC)CC4)ccc3c2=O)cc1 3.98 µM [inhibitor, partial curve]
Cc1ccc(S(=O)(=O)NC(C(=O)Oc2cc3oc(=O)cc(C)c3cc2Cl)C(C)C)cc1 (stereo not drawn) 8.91 µM [inhibitor, partial curve, poor fit]
CC1=Nc2cc(C(=O)NCCc3ccccc3)ccc2Sc2c(C)ccc(C)c21 0.891 µM [inhibitor, full curve, poor fit]
CC(C)(C)c1ccc(C(=O)N2CCN(c3ccc(N4CCOCC4)nn3)CC2)cc1 10 µM [inhibitor, single point]
CCCCC(=O)NC(=S)Nc1ccccc1N1CCCCC1 28.2 µM [inhibitor, single point]
Cc1ccc(Cn2c(SCC(=O)C(C)(C)C)nc3ccsc3c2=O)cc1 11.2 µM [inhibitor, partial curve, poor fit]
COC(=O)c1ccc2nc(C3CCCCC3)c(CC(C)(C)C)n2c1 25.1 µM [inhibitor, single point]
O=C(Nc1ccccc1)C1=C[C@H](C2CCCCC2)C[C@H](OCc2ccc(CO)cc2)O1 20 µM [inhibitor, single point]
CCNC(=O)COc1ccc(/C=C2\COc3ccccc3C2=O)cc1OC 28.2 µM [inhibitor, single point]
CCOc1ccc(-n2nc3c(=O)n(CCN4CCCCC4)nc(C)c3c2C)cc1 31.6 µM [inhibitor, single point]
Cc1cc(C)cc(NC(=S)NCc2ccc3c(c2)OCO3)c1 25.1 µM [inhibitor, single point]
COc1ccccc1NC(=S)N(CCc1c(C)[nH]c2ccccc12)Cc1cccs1 20 µM [inhibitor, single point]
CCN(CC(=O)Nc1cc(Cl)ccc1C)C(=O)C1CC(=O)N(Cc2ccccc2)C1 (stereo not drawn) 7.94 µM [inhibitor, partial curve]
O=C(c1cccc(S(=O)(=O)N2CCN(c3ccc(F)cc3)CC2)c1)N1CCCC(C(F)(F)F)C1 (stereo not drawn) 11.2 µM [inhibitor, partial curve, poor fit]
COc1cccc(CC(=O)Nc2nc(-c3ccc(OC)c(OC)c3)cs2)c1 28.2 µM [inhibitor, single point]
O=C(CSc1nnc(SCc2ccc(Cl)cc2)s1)c1ccc2c(c1)OCO2 28.2 µM [inhibitor, single point]
O=C(NCc1ccccc1)c1nc(S(=O)(=O)Cc2ccccc2)ncc1Cl 28.2 µM [inhibitor, single point] and 11.2 µM [inhibitor, single point]
Cc1c(C(=O)Nc2ccc3c(c2)OCCO3)oc2ccc(Br)cc12 28.2 µM [inhibitor, single point]
COc1ccc(C(CCNCc2ccc(F)cc2)c2ccc(F)cc2)cc1 (stereo not drawn) 28.2 µM [inhibitor, single point]
Cc1ccc2nc(-c3ccccn3)c(NC3CCCC3)n2c1 28.2 µM [inhibitor, single point]
CCn1c(=O)c(C(=O)NNS(=O)(=O)c2ccc(Cl)cc2)c(O)c2ccccc21 12.6 µM [inhibitor, single point]
Cc1nn(-c2ccccc2)c(C)c1/C=N/NC(=O)CSc1nnc(-c2ccccc2)n1-c1ccc(Cl)cc1 2 µM [inhibitor, partial curve, poor fit]
Cc1ccc(NC(=O)CN2CCN(S(=O)(=O)c3cccs3)CC2)cc1S(=O)(=O)N(C)C 20 µM [inhibitor, partial curve, poor fit]

Potency, inactive:
COc1ccc([N+](=O)[O-])cc1NC(=S)NC(C)=O
COc1ccc(-c2cc3nc(C4CCN(C(=O)OC(C)(C)C)CC4)c(C(=O)O)cn3n2)cc1
Cc1sc2ncn(CC(=O)N3CCN(c4ccc(Cl)cc4)CC3)c(=O)c2c1S(=O)(=O)N1CCN(c2ncccn2)CC1
COCCNC(=O)c1cc2c(-c3ccccc3F)nn(C)c2s1
O=C(Cn1c(=O)n(Cc2ccc3c(c2)OCO3)c(=O)c2oc3ccccc3c21)Nc1ccccc1F

Potency, active:
CC(C)(C)c1ccc(-n2ncc3c2CCCC3NC(=O)c2ccco2)cc1 (stereo not drawn) 10 µM
CC(C)(C)c1ccc(C(=O)NNc2cc(N3CCCCC3)nc(N3CCCCC3)n2)cc1 3.16 µM
CC(C)(C)NC(=O)C(c1ccc(C(F)(F)F)cc1)n1c(=O)c(-c2cc3ccccc3[nH]2)nc2ccccc21 (stereo not drawn) 2.82 µM
